# Assay results as given in the supplement of paper PMC8728848.
# This is one part of the list.
# B1: rMpL (Macrolepiota procera) (protein)
# chain: MSTQVSSGRTYKITNVIAGTVIDLSGEDNKSIIGYPYHSGKNQQWTFNWTGKAWTLRSASSGSYLGIEGTPAGGTRLVAVNDPFEWHIWRDEANENAFRIFVPFTNYNLDLSGYGDTTPGTPVQLWWTWEGLHQTWTIDRP
# Tests used:
# Experiment in all cases: glycan array binding signal (z-score within array); higher = stronger binding
# Conditions in all cases: glycan notation: IUPAC condensed, linker removed
# [1] = target: Kdn(a2-3)Gal(b1-4)[Fuc(a1-3)]GlcNAc
# Method in brief: (§1)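 The binding signal is a Z-score computed within each array and averaged over linkers. Arrays of the same protein sequence at different concentrations or buffers were also averaged together. Data originate from 3228 arrays in the Consortium for Functional Glycomics database, kept only where the protein sequence was available.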
# Kdn(a2-6)Gal(b1-4)GlcNAc = target: Kdn(a2-6)Gal(b1-4)GlcNAc
# Method in brief: as §1
# [2] = target: Man(a1-2)Man(a1-2)Man(a1-3)Man
# Method in brief: as §1
# [3] = target: Man(a1-2)Man(a1-2)Man(a1-6)[Man(a1-3)]Man
# Method in brief: as §1
# Man(a1-2)Man(a1-3)Man = target: Man(a1-2)Man(a1-3)Man
# Method in brief: as §1
# [4] = target: Man(a1-2)Man(a1-3)[Man(a1-2)Man(a1-6)]Man
# Method in brief: as §1
# [5] = target: Man(a1-2)Man(a1-3)[Man(a1-2)Man(a1-6)]Man(a1-6)[Man(a1-2)Man(a1-2)Man(a1-3)]Man
# Method in brief: as §1
# [6] = target: Man(a1-2)Man(a1-3)[Man(a1-2)Man(a1-6)]Man(a1-6)[Man(a1-2)Man(a1-2)Man(a1-3)]Man(b1-4)GlcNAc(b1-4)GlcNAc
# Method in brief: as §1
# [7] = target: Man(a1-2)Man(a1-3)[Man(a1-6)]Man(a1-6)[Man(a1-2)Man(a1-3)]Man(b1-4)GlcNAc(b1-4)GlcNAc
# Method in brief: as §1
# [8] = target: Man(a1-2)Man(a1-6)[Man(a1-3)]Man(a1-6)[Man(a1-2)Man(a1-2)Man(a1-3)]Man
# Method in brief: as §1
# [9] = target: Man(a1-2)Man(a1-6)[Man(a1-3)]Man(a1-6)[Man(a1-2)Man(a1-2)Man(a1-3)]Man(b1-4)GlcNAc(b1-4)GlcNAc
# Method in brief: as §1
# Man(a1-3)[Man(a1-6)]Man = target: Man(a1-3)[Man(a1-6)]Man
# Method in brief: as §1
# [10] = target: Man(a1-3)[Man(a1-6)]Man(a1-6)[Man(a1-2)Man(a1-3)]Man(b1-4)GlcNAc(b1-4)GlcNAc
# Method in brief: as §1
# [11] = target: Man(a1-3)[Man(a1-6)]Man(a1-6)[Man(a1-3)]Man
# Method in brief: as §1
# [12] = target: Man(a1-3)[Man(a1-6)]Man(a1-6)[Man(a1-3)]Man(b1-4)GlcNAc(b1-4)GlcNAc
# Method in brief: as §1
# [13] = target: Man(a1-3)[Man(a1-6)]Man(b1-4)GlcNAc(b1-4)GlcNAc
# Method in brief: as §1
# [14] = target: Man(a1-3)[Man(a1-6)]Man(b1-4)GlcNAc(b1-4)[Fuc(a1-6)]GlcNAc
# Method in brief: as §1
# Man(a1-6)Man = target: Man(a1-6)Man
# Method in brief: as §1
# Man(b1-4)GlcNAc = target: Man(b1-4)GlcNAc
# Method in brief: as §1
# MurNAc(b1-4)GlcNAc = target: MurNAc(b1-4)GlcNAc
# Method in brief: as §1
# Neu5Ac(a2-3)Gal = target: Neu5Ac(a2-3)Gal
# Method in brief: as §1
# [15] = target: Neu5Ac(a2-3)Gal(b1-3)GalNAc
# Method in brief: as §1
# [16] = target: Neu5Ac(a2-3)Gal(b1-3)GalNAc(b1-3)Gal(a1-4)Gal(b1-4)Glc
# Method in brief: as §1
# [17] = target: Neu5Ac(a2-3)Gal(b1-3)GalNAc(b1-4)[Neu5Ac(a2-3)]Gal(b1-4)Glc
# Method in brief: as §1
# [18] = target: Neu5Ac(a2-3)Gal(b1-3)GalNAc(b1-4)[Neu5Ac(a2-8)Neu5Ac(a2-3)]Gal(b1-4)Glc
# Method in brief: as §1
# [19] = target: Neu5Ac(a2-3)Gal(b1-3)GalNAc6S
# Method in brief: as §1
# [20] = target: Neu5Ac(a2-3)Gal(b1-3)GlcNAc
# Method in brief: as §1
# [21] = target: Neu5Ac(a2-3)Gal(b1-3)GlcNAc(b1-2)Man
# Method in brief: as §1
# [22] = target: Neu5Ac(a2-3)Gal(b1-3)GlcNAc(b1-2)Man(a1-3)[GlcNAc(b1-4)][Neu5Ac(a2-3)Gal(b1-3)GlcNAc(b1-2)Man(a1-6)]Man(b1-4)GlcNAc(b1-4)GlcNAc
# Method in brief: as §1
# [23] = target: Neu5Ac(a2-3)Gal(b1-3)GlcNAc(b1-2)Man(a1-3)[Neu5Ac(a2-3)Gal(b1-3)GlcNAc(b1-2)Man(a1-6)]Man(b1-4)GlcNAc(b1-4)GlcNAc
# Method in brief: as §1
# [24] = target: Neu5Ac(a2-3)Gal(b1-3)GlcNAc(b1-2)[Neu5Ac(a2-3)Gal(b1-3)GlcNAc(b1-4)]Man(a1-6)[Neu5Ac(a2-3)Gal(b1-3)GlcNAc(b1-2)Man(a1-3)]Man(b1-4)GlcNAc(b1-4)GlcNAc
# Method in brief: as §1
# [25] = target: Neu5Ac(a2-3)Gal(b1-3)GlcNAc(b1-3)Gal(b1-3)GlcNAc
# Method in brief: as §1
# [26] = target: Neu5Ac(a2-3)Gal(b1-3)GlcNAc(b1-3)Gal(b1-4)GlcNAc
# Method in brief: as §1
# [27] = target: Neu5Ac(a2-3)Gal(b1-3)GlcNAc(b1-3)GalNAc
# Method in brief: as §1
# [28] = target: Neu5Ac(a2-3)Gal(b1-3)GlcNAc(b1-4)Gal(b1-4)Glc
# Method in brief: as §1
# [29] = target: Neu5Ac(a2-3)Gal(b1-3)GlcNAc(b1-6)GalNAc
# Method in brief: as §1
# [30] = target: Neu5Ac(a2-3)Gal(b1-3)GlcNAc6S
# Method in brief: as §1
# [31] = target: Neu5Ac(a2-3)Gal(b1-3)[Fuc(a1-4)]GlcNAc
# Method in brief: as §1
# [32] = target: Neu5Ac(a2-3)Gal(b1-3)[Fuc(a1-4)]GlcNAc(b1-3)Gal(b1-3)[Fuc(a1-4)]GlcNAc
# Method in brief: as §1
# [33] = target: Neu5Ac(a2-3)Gal(b1-3)[Fuc(a1-4)]GlcNAc(b1-3)Gal(b1-4)[Fuc(a1-3)]GlcNAc
# Method in brief: as §1
# [34] = target: Neu5Ac(a2-3)Gal(b1-3)[GlcNAc(b1-6)]GalNAc
# Method in brief: as §1
# [35] = target: Neu5Ac(a2-3)Gal(b1-3)[Neu5Ac(a2-6)]GalNAc
# Method in brief: as §1
# [36] = target: Neu5Ac(a2-3)Gal(b1-3)[Neu5Ac(a2-6)]GlcNAc(b1-3)[Fuc(a1-3)[Gal(b1-4)]GlcNAc(b1-6)]Gal(b1-4)Glc
# Method in brief: as §1
# [37] = target: Neu5Ac(a2-3)Gal(b1-3)]Neu5Ac(a2-3)Gal(b1-4)]GlcNAc
# Method in brief: as §1
# Neu5Ac(a2-3)Gal(b1-4)Glc = target: Neu5Ac(a2-3)Gal(b1-4)Glc
# Method in brief: as §1
binder,measurement,setting,value
B1,glycan array binding signal (z-score),[1],-0.266
same,glycan array binding signal (z-score),Kdn(a2-6)Gal(b1-4)GlcNAc,-0.252
same,glycan array binding signal (z-score),[2],-0.323
same,glycan array binding signal (z-score),[3],-0.248
same,glycan array binding signal (z-score),Man(a1-2)Man(a1-3)Man,-0.328
same,glycan array binding signal (z-score),[4],-0.407
same,glycan array binding signal (z-score),[5],-0.327
same,glycan array binding signal (z-score),[6],-0.094
same,glycan array binding signal (z-score),[7],-0.35
same,glycan array binding signal (z-score),[8],-0.422
same,glycan array binding signal (z-score),[9],-0.037
same,glycan array binding signal (z-score),Man(a1-3)[Man(a1-6)]Man,-0.296
same,glycan array binding signal (z-score),[10],0.343
same,glycan array binding signal (z-score),[11],-0.268
same,glycan array binding signal (z-score),[12],-0.329
same,glycan array binding signal (z-score),[13],-0.292
same,glycan array binding signal (z-score),[14],-0.261
same,glycan array binding signal (z-score),Man(a1-6)Man,-0.254
same,glycan array binding signal (z-score),Man(b1-4)GlcNAc,-0.261
same,glycan array binding signal (z-score),MurNAc(b1-4)GlcNAc,-0.365
same,glycan array binding signal (z-score),Neu5Ac(a2-3)Gal,-0.389
same,glycan array binding signal (z-score),[15],-0.292
same,glycan array binding signal (z-score),[16],-0.277
same,glycan array binding signal (z-score),[17],-0.276
same,glycan array binding signal (z-score),[18],-0.341
same,glycan array binding signal (z-score),[19],-0.375
same,glycan array binding signal (z-score),[20],-0.277
same,glycan array binding signal (z-score),[21],-0.267
same,glycan array binding signal (z-score),[22],-0.225
same,glycan array binding signal (z-score),[23],0.052
same,glycan array binding signal (z-score),[24],-0.283
same,glycan array binding signal (z-score),[25],-0.336
same,glycan array binding signal (z-score),[26],-0.348
same,glycan array binding signal (z-score),[27],-0.261
same,glycan array binding signal (z-score),[28],-0.368
same,glycan array binding signal (z-score),[29],-0.264
same,glycan array binding signal (z-score),[30],-0.081
same,glycan array binding signal (z-score),[31],-0.34
same,glycan array binding signal (z-score),[32],-0.447
same,glycan array binding signal (z-score),[33],-0.207
same,glycan array binding signal (z-score),[34],-0.356
same,glycan array binding signal (z-score),[35],-0.37
same,glycan array binding signal (z-score),[36],-0.268
same,glycan array binding signal (z-score),[37],-0.282
same,glycan array binding signal (z-score),Neu5Ac(a2-3)Gal(b1-4)Glc,-0.224
